# According to the supplement of paper PMC11417369:
# ± gives the standard deviation of the averaged measurements. Some of the results follow.
# Tested on: PfAP2-G AP2 domain (GST-tagged)
# Experiment: gcPBM binding intensity (ln(normalized median fluorescence intensity)); higher = stronger DNA binding
# Procedure, shortened: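 Probes on an Agilent 4 × 180k array were primer-extended, double-stranded and 36 bp long, taken from intergenic genomic regions, with negative controls added. GST-tagged P. falciparum DNA-binding domains from E. coli, about 25 μg on average, were applied to the array for 1 h in 1× PBS containing 1% milk, 0.2 mg/ml BSA, 0.5% salmon testes DNA and 0.03% Triton X-100. Binding intensity, obtained after Alexa488 anti-GST antibody detection and a 488 nm scan, is the highest Masliner-normalised natural-log median intensity across replicate spots of either probe orientation.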
row,Sequence,gcPBM binding intensity (ln)
1,ATATATGTGTATGTATGTACTTATATTTTTTTTTAT [XGTACX_site1733],11.2 ± 0.78
2,TTTTTTTTTTATGAAAGTACATATGAAAAATACGAA [XGTACX_site3451],11 ± 0.8
3,AAAAATGAAAGTAAGACATGCATGGAATTTTTTTTA [TGCATGCA_site347],9.73 ± 0.28
4,ATATATATATATGTATGTACGTATGTATTTACTGCT [XGTACX_site3839],11.3 ± 0.86
5,GAAGTAATTTCATATACACACATATACATACATACA [CACACA_site6753],10.3 ± 0.19
6,TTCATACATATTTGAAGTACATTTAAAAATGTCCTT [XGTACX_site747],11.3 ± 0.56
7,TCCAATATATTTATGAGTACTTATAAATTATACGTT [XGTACX_site742],11.6 ± 0.98
8,TTTGAATAAAAACAAAAAATTAAATTAAATTAAATA [CACACA_negctrl_site312],9.53 ± 0.24
9,TATTTATAATTATAATAATATATATATATATATATA [TGCATGCA_negctrl_site173],9.82 ± 0.42
10,ATTGTGTTAATAAAATGTACATTTTCTCTACATTAA [XGTACX_site2766],11 ± 0.57
11,TTCTTACATGAGTGTACACACTTTTTTTCAGAAAAT [CACACA_site4215],11.7 ± 1
12,GGTGGGGAGGAGTAATGTACAAATTAACATATTATG [XGTACX_site6666],11.3 ± 0.77
13,AATAGTCGGGTGCATACACACCTTAAATATAATATA [CACACA_site8271],10.2 ± 0.25
14,TTATAAAATATTTATGCATGTGAAGAATATTATAAA [TGCATGCA_site1047],9.94 ± 0.014
15,GAAAAAAGTATCAAGGTGCGTATATACATCAAAATA,10.8 ± 0.64
16,TATATATTATAAAATTGTACATATATTAAATTTTTT [XGTACX_site5852],10.8 ± 0.48
17,CATTTATATAAAAGAACACACATATAAAATATTATT [CACACA_site3601],10.1 ± 0.11
18,TTTTTTTTTTAATTGGGTACATATATAATTTAAGAA [XGTACX_site2732],11.3 ± 0.79
19,AAGATACCAATGAAATGTACATATATATAAATATAA [XGTACX_site2135],10.9 ± 0.42
20,CAAAACAAAACGTATGCACACAATTAAAATATTAAA [CACACA_site5815],10.2 ± 0.29
21,AAATGTTGAGCAGTACAAAAAAAAAAAAAAAAAAAA [GTGCAC_negctrl_site518],10.7 ± 0.83
22,ATATAATATATTTTTGAACACACAATATATATATAT [CACACA_site9368],10.1 ± 0.41
23,AGCAAAACATAAAATAGTACACATTTAACAAAAAAA [XGTACX_site2921],11.4 ± 0.71

row,Sequence,gcPBM binding intensity (ln)
1,AAAAGAACAATGAAGTGTACTAATAATTATTTATGT [XGTACX_site6649],11.3 ± 0.79
2,TTTTATCATCTTTTTACATTATGTATAAATATTTTC [CACACA_negctrl_site206],10.025 ± 0.007
3,TAACTAATATATAAAACACACATCATAAAAATATAA [CACACA_site768],9.955 ± 0.078
4,TTTTGTTGAAAAGTAAGATATTCCAACATGTTTTTA [CACACA_negctrl_site391],9.88 ± 0.014
5,ATATCATTTTCCTGCACACATAAATTTATATAATAT [CACACA_site1048],10.4 ± 0.23
6,ACACATAAATGAATAAATAAATAAATATAAATATAA [CACACA_negctrl_site1784],9.675 ± 0.007
7,TACATATTGATATATACACACAAAAAAATAAATTCT [CACACA_site6198],9.86 ± 0.028
8,ACCTTAATAAAAAAAAGTACAAACATGTTCAAATTG [XGTACX_site1556],11.5 ± 0.95
9,ATATATTGCACTTTTTGTACATAATGAAAAATTTTT [XGTACX_site8223],11.1 ± 0.56
10,CATACACCCATACATACACACATACAGATATATATA [CACACA_site5123],10.2 ± 0.29
11,AATTCGTACCTCATTTGTACATATATATATATATAT [XGTACX_site5513],11.3 ± 0.69
12,TTTTTTATAGTACATTACCAAAAAAAAAAAAAAAAA [GTGCAC_negctrl_site549],11.1 ± 0.97
13,CTTTTATTTTATTTTAGTACGCAACATTCTCTATAT [XGTACX_site7279],11.3 ± 0.73
14,TATTTATTTAAAAATTGTACGTAGGATTATACACTT [XGTACX_site286],11.2 ± 0.86
15,ATATAAATATTATAATGTACATATAATATATTTATT [XGTACX_site5212],11 ± 0.49
16,TCACCATATAAACGTGCACACTACAAAAATATATAA [CACACA_site5413],10.6 ± 0.61
17,ATCTCTGTATGTTAGACACACATATTTTAATATGTT [CACACA_site4244],10.2 ± 0.16
18,TAAAATTTGTACATAGTGCAATTTTTTTTTTTTTTT,10.7 ± 0.52
19,TAGTTTTTTATATATTGTACAAATAATATATGATAT [XGTACX_site4220],10.8 ± 0.47
20,AGTGATTATTAATAATGTACATATCTATAAATATAT [XGTACX_site4734],11 ± 0.47
21,TTTTTTTTTTTTTTCTTACAATTTATTGAACAAATG [XGTACX_negctrl_site515],9.73 ± 0.49
22,TATATATTTCATCCTTGTACACATTTGTGTTTACAT [XGTACX_site1132],11.2 ± 0.73
23,GTATTGCATGAGGACACACACAAAAAAAATATAGAT [CACACA_site6500],11.3 ± 0.97

row,Sequence,gcPBM binding intensity (ln)
1,ACAATTTACACTTAAACACACAAAAAAAAGTTATAT [CACACA_site7056],10.05 ± 0.021
2,TATCAAAATTGTAATTGTACTTGTAAGTGGATATAT [XGTACX_site5949],11.3 ± 0.88
3,AATAAATAAATATATATATATATATATATATATATA [CACACA_negctrl_site365],9.63 ± 0.48
4,TAAAAATTGAAGCACACACACAAAAGAAATACAATA [CACACA_site1113],10.2 ± 0.11
5,ATATAAAAAAATTGCACACATAAATAAATACAGATA [CACACA_site4806],10.15 ± 0.035
6,TTTTTTTTTACTTGTTGTACTTTTTCAAGGTATTGT [XGTACX_site7778],11.4 ± 0.83
7,AGATAAGATATATACACACACATAAATACGTACAAA [CACACA_site6639],11.6 ± 0.78
8,CTACCTTTAATATATACACACACATAAAAAAAATAT [CACACA_site8548],10.3 ± 0.3
9,ATATATATATATAATAAACACACAAATAGATATAAC [CACACA_site9234],10.065 ± 0.007
10,TATATATATATATATACATGCATACATATACATACA [TGCATGCA_site897],10 ± 0.22
11,AAGAATGTTATTAGTACACACAATTATTATAGAAAT [CACACA_site7714],11.3 ± 0.97
12,AATGTACAAATACGTACACACATATTTATATTTATA [CACACA_site6833],11.6 ± 0.99
13,ATATTTACAAGTAATAGTACAGTTAATTATATAAAA [XGTACX_site4856],11.2 ± 0.95
14,ATTATATAGCTAAAAAAAATAAATTAAAAATATTAA [TGCATGCA_negctrl_site505],9.53 ± 0.042
15,TACTTGTTATTAACATGTACAAAAAAAAAAAAAATT [XGTACX_site1338],10.8 ± 0.53
16,AAACAATATTCTCAAGTGCAAAAAGAAAAAAGAAAT,9.95 ± 0.11
17,TTTATTTTTATTTAAAGTACATATCCATTTATTCCT [XGTACX_site1914],11.2 ± 0.7
18,ATAGGATGCATATGAGTGCATTCTGTGTTGTTATAA,9.885 ± 0.007
19,AGATTAAAATATATACGTACATATTATTAATTAATA [XGTACX_site3487],11.5 ± 0.86
20,AATGTACCCACACCCACACACAAACAAATATATATA [CACACA_site2751],11.3 ± 0.95
21,TAATGTATTATATTTTGTTTTCTTCCACCAAAAAAA [XGTACX_negctrl_site64],10.3 ± 0.49
22,AAAAAAAAAATTAAATGTACACACACCTTAAACAAT [XGTACX_site3848],11.4 ± 0.74
23,ATTTTCTTATATATATTTTGTATATATTTTGTACAT [CACACA_negctrl_site1496],10.5 ± 0.39

row,Sequence,gcPBM binding intensity (ln)
1,ACCCATATAATATATACACACATATATATATATATA [CACACA_site4731],10.1 ± 0.18
2,TCTCATAGTAGACACACACACACACGCACATATATA [CACACA_site6916],10.4 ± 0.22
3,TATGTATGTGCTTGTGCGCACCGATAATATAGCCAA,10.5 ± 0.31
4,TGCTATAATTTATATACACACAAATATATACGCATA [CACACA_site4096],10 ± 0.14
5,ACATAAGACACAAATACACACAAAAATATGTAACAA [CACACA_site7836],10.2 ± 0.21
6,TTTTATGAAAAGTATTGTACGTATAATTTATATGTA [XGTACX_site1639],11.6 ± 1.1
7,TATATAAATAGACACACACACACCTTATAATTACTA [CACACA_site7828],10.1 ± 0.16
8,GAAGAAAAATAAAAAGTGCAAAAAAAGTAAAAATTT [GTGCAC_site9897],10.11 ± 0.078
9,ATAATAATTAACCTATGTACATAGGAAAGTCATAAA [XGTACX_site4387],10.9 ± 0.47
10,AAAAAAAAAAAACACACACACACATACACATACATA [CACACA_site2858],10.09 ± 0.099
11,TCCATATATGCCTTATGTACATATACCAAATTAACC [XGTACX_site6513],11.3 ± 0.75
12,TTTGGCTAGTTAGGCCGTACATGTAAATAATATATA [XGTACX_site1138],10.9 ± 0.64
13,GAAGTTTTTTAAAGATGTACTTTTTAAAAATAATCT [XGTACX_site263],11.5 ± 0.93
14,AATGAATGTAAGAAAATACACACTAGTATAGTAACA [CACACA_site1955],10.29 ± 0.092
15,TTGGAAAAAGTGAAATGTACATATATATTTATTATT [XGTACX_site6946],11 ± 0.36
16,AAAGGATTTATACTAGTGCAAAAATATAAAAATATA,9.87 ± 0.085
17,AATAATAAAGTGAACACACACATATAACATCTATAT [CACACA_site7868],10.04 ± 0.099
18,TTTGTTTTTAATTTCGCACACACCTTGTGGAAAAAA [CACACA_site577],10.3 ± 0.4
19,AAATATTTTATACTTGCACACAAAATATATTAAAAT [CACACA_site8606],10.2 ± 0.2
20,AATATAAATACTCCTACACACATATATATATATATA [CACACA_site3010],10.4 ± 0.36
21,GACACAAAAAAATAATAATAATAATAATAATAAATA [XGTACX_negctrl_site145],9.66 ± 0.12
